Assay results: the supplement of paper PMC10441789
The other results are listed elsewhere or left out. Antibody binding of pooled human sera (four to six donors per pool; dilution not stated) to peptides of the Trypanosoma cruzi antigen TSSA on microarrays. Quantile-normalised fluorescence in arbitrary units, mean of duplicate arrays; higher = more binding. No active / inactive call. The uninfected pools are read here as the healthy donors of the same country. The strongest signals lie near the top of the scale (about 60,000).

Tests used:
Test in all cases: antibody binding signal (normalised fluorescence) (arbitrary fluorescence units); higher = stronger serum antibody binding to peptide
[1] = test system: pooled sera of chronic Chagas disease patients, Argentina
Method: (§1)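 Microarray of 15-residue peptides over residues 30-55 of Trypanosoma cruzi TSSAII, each with 1 to 10 substitutions at naturally variable positions, probed with one serum pool per country.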

[2] = test system: pooled sera of chronic Chagas disease patients, Bolivia
Method: as §1

[3] = test system: pooled sera of chronic Chagas disease patients, Brazil
Method: as §1

[4] = test system: pooled sera of chronic Chagas disease patients, Colombia
Method: as §1

[5] = test system: pooled sera of chronic Chagas disease patients, Mexico
Method: as §1

[6] = test system: pooled sera of chronic Chagas disease patients, USA
Method: as §1

[7] = test system: pooled sera of uninfected people, Argentina
Method: as §1

[8] = test system: pooled sera of uninfected people, Bolivia
Method: as §1

[9] = test system: pooled sera of uninfected people, Brazil
Method: as §1

[10] = test system: pooled sera of uninfected people, Colombia
Method: as §1

[11] = test system: pooled sera of uninfected people, Mexico
Method: as §1

[12] = test system: pooled sera of uninfected people, USA
Method: as §1

Sequence	antibody binding signal [1]	antibody binding signal [2]	antibody binding signal [3]	antibody binding signal [4]	antibody binding signal [5]	antibody binding signal [6]	antibody binding signal [7]	antibody binding signal [8]	antibody binding signal [9]	antibody binding signal [10]	antibody binding signal [11]	antibody binding signal [12]
GTDKKAAAGGAPSQP	217	251	1560	4960	526	421	176	209	126	98.8	120	141
KEKKTATGGAPSPPG	421	245	230	1280	274	707	237	101	120	112	117	108
TPPSGKDNKTATGGT	865	352	1940	1970	19900	2790	295	411	396	196	90.1	179
GTENKPATGGAPSPS	42600	21500	8640	619	1870	3340	500	2230	740	192	340	216
GTDKKAATGGAPSPP	618	248	512	2080	1150	1270	440	566	123	590	221	122
ENKPATGGTPSQPGA	1060	3210	18600	908	965	2630	462	596	497	391	697	243
SGKENKTATGGTPSQ	3440	692	17600	5100	4090	19000	8180	1640	167	434	371	279
EKKAATGGAPSQSGA	1050	258	754	1170	1580	941	386	1220	140	1070	219	552
TDKKTAAGGAPSQPG	1270	458	2140	6340	496	467	169	119	238	184	260	127
GKDKKAAAGGAPSPS	222	178	181	2240	835	413	125	77.4	116	95.3	85.1	98.2
NKAATGGTPSPSGAS	576	624	5780	404	496	378	636	824	761	787	171	1220
SGTENKAATGEAPSQ	35400	46100	39500	187	231	29200	611	380	119	161	141	145
GTDNKTAAGETPSQP	256	3790	35100	246	314	667	124	678	1260	168	205	119
GKDNKPAAGETPSPS	1450	309	10700	1500	1970	3780	425	891	143	230	451	1520
GTENKPATGETPSQP	45000	37400	44400	507	1570	25300	483	1030	640	160	1870	193
STPPSGTENKAAAGG	51300	45800	53100	1120	3800	38400	2980	707	468	879	620	843
NKTATGETPSQPGAS	2350	9440	36300	276	270	5830	555	2350	472	465	364	1390
DKKAAAGEAPSQSGA	1530	6080	12200	327	321	11300	130	315	135	92.1	106	127
NKPAAGGAPSPPGAS	215	410	5600	1580	235	1290	755	1120	329	666	170	1700
SGTDNKPATGGAPSQ	7330	14900	45500	3070	693	2890	246	1260	467	244	348	250
DNKTATGGAPSQPGA	700	1950	3850	747	343	483	386	201	434	314	528	299
GKDKKPAAGETPSPS	509	332	398	892	878	1410	121	165	101	108	78.2	333
PPSGKENKAATGGAP	5090	2700	5750	1210	2600	3890	3970	1630	152	719	260	456
TPPSGKENKTAAGGA	10100	722	3200	592	2080	2170	2550	911	240	506	211	321
PPSGTENKTATGGAP	41000	42700	47900	410	3780	12900	2440	940	339	946	512	1120

Sequence	antibody binding signal [1]	antibody binding signal [2]	antibody binding signal [3]	antibody binding signal [4]	antibody binding signal [5]	antibody binding signal [6]	antibody binding signal [7]	antibody binding signal [8]	antibody binding signal [9]	antibody binding signal [10]	antibody binding signal [11]	antibody binding signal [12]
SGTEKKPAAGGTPSQ	2850	330	7420	8710	2410	2450	184	1010	3130	157	445	1340
SSTPPSGKENKAATG	14600	3430	9300	1110	3470	2700	2960	1270	131	767	143	507
SGTENKTATGGAPSP	31700	15600	20400	732	738	5670	573	377	208	318	419	242
TEKKPAAGEAPSPPG	1530	228	15200	332	339	15400	121	154	237	100	181	561
GKENKTAAGETPSQP	5830	1840	29100	10200	8400	16300	588	239	153	192	215	190
TEKKTATGETPSQSG	1060	1020	4790	427	407	8370	231	258	341	141	278	195
SGKEKKTATGEAPSP	12400	5250	8550	1400	1730	17800	272	284	113	156	172	112
TEKKPATGGAPSQPG	2370	526	15200	2320	1680	2500	394	1130	272	354	295	1050
TPPSGTEKKPAAGET	35700	34800	42800	473	25300	6920	1050	725	1120	318	314	362
GTEKKAATGEAPSQP	25800	23600	43100	833	1690	28300	539	690	201	607	202	166
TDNKPAAGGAPSQPG	1820	1720	22000	888	254	584	139	275	459	225	337	166
GTEKKTATGETPSPS	768	721	860	574	748	8140	212	701	233	139	384	2060
KAATGETPSPPGASS	1640	930	16700	182	152	7610	202	253	279	161	103	513
EKKAATGEAPSPPGA	20800	14600	30100	366	860	23600	854	769	138	635	272	914
SGTEKKTATGGAPSP	4640	275	2160	3850	1560	2090	366	650	122	122	292	158
GKENKTATGGAPSQP	2190	346	7190	4540	5240	13100	423	104	124	141	189	183
KPATGGTPSPPGASS	534	362	266	274	365	217	227	643	232	259	160	207
TENKPAAGEAPSPSG	50600	4260	28000	311	547	16200	218	317	204	80.1	119	182
EKKTATGGAPSPSGA	1360	285	669	4220	909	1260	399	1040	127	161	210	593
NKPATGGAPSQSGAS	866	1410	7840	214	668	1580	667	1630	281	318	471	1120
PPSGKDNKTATGGAP	639	259	2490	2110	3780	2710	653	417	162	292	95.5	296
PPSGTDKKPAAGGTP	30300	14500	40000	15300	48600	4120	830	417	1360	521	4070	511
ENKTAAGGAPSQPGA	344	4530	8440	5280	460	1670	322	255	543	270	596	278
SSTPPSGKDNKTATG	9110	1880	5550	2220	19100	3150	402	321	166	226	130	377
PPSGKENKAAAGGTP	6640	1210	3930	2690	4100	4260	3030	1320	567	582	159	239
